The target in experiment [1] is T1, GST-Nab2-N (GST fusion to the N-terminal domain of Nab2, residues 1–97) (S. cerevisiae) (UniProt P32505).
T1 sequence: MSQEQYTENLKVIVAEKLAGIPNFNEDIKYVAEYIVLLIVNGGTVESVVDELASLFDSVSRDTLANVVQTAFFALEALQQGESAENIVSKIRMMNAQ
Put plainly: pull-down; Sepharose-bound GST fusion protein (6 μg) incubated with purified His-CT-Mlp1 (2 μg), washed three times with PBS, SDS-PAGE and Coomassie Blue staining; both purified.

By UniProt entry, the sequences of proteins in these tests, tags left out. Where a name states a change or a piece, a line headed by the entry shows the natural chain unless it says otherwise.
UniProt Q02455: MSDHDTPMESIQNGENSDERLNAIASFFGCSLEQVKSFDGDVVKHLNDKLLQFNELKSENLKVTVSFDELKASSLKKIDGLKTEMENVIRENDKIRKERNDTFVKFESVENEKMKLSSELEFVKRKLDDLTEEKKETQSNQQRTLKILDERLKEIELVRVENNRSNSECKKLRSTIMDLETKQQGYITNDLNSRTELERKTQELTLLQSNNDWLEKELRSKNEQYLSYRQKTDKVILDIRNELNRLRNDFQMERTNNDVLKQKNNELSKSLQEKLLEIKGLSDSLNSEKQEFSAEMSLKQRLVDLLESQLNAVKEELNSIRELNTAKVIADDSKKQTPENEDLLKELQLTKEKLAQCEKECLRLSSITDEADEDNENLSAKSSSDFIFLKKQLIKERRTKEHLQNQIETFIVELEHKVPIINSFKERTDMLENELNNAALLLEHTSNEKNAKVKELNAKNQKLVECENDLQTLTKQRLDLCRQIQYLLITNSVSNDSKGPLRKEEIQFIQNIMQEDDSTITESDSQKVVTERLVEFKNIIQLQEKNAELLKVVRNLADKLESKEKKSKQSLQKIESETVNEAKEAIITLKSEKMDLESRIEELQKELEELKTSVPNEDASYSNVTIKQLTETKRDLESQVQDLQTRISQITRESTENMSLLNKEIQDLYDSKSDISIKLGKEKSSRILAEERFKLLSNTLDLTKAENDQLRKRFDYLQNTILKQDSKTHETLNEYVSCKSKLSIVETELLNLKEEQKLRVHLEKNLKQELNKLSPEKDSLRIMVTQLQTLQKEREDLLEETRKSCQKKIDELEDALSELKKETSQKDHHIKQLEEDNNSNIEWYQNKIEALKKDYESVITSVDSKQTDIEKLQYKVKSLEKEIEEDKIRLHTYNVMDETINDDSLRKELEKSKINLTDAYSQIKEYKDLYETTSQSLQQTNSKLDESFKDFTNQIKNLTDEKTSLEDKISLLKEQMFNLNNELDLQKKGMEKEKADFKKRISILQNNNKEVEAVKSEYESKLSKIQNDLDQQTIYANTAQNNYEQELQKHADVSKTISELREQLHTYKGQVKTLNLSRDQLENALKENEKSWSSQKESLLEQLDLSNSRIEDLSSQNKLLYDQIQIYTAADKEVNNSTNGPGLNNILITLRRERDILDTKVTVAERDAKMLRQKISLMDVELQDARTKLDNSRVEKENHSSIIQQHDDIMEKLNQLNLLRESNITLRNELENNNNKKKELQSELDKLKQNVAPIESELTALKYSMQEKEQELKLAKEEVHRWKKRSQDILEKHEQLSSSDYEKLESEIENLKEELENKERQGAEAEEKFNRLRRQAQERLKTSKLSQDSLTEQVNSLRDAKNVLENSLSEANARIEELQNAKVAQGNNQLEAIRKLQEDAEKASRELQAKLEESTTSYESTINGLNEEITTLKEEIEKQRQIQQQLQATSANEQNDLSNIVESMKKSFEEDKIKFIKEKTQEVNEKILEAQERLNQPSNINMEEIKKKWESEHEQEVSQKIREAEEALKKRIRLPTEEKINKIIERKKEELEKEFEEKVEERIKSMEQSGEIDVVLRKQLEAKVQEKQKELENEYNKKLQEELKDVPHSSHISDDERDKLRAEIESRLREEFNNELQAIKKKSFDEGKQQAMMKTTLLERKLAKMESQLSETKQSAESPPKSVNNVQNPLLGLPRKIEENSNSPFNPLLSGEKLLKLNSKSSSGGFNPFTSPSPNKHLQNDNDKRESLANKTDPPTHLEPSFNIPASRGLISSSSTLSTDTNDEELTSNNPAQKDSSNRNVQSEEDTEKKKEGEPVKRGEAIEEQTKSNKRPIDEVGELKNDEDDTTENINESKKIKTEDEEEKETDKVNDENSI

Experiment [2] addresses T2, GST-Nab2-N F73W (S. cerevisiae) (UniProt P32505).
T2 sequence: T1 sequence with F73W
Described as above.

The target of experiment [3] is T3, GST-Nab2-N F72D (aa 1–97) (S. cerevisiae) (UniProt P32505).
T3 sequence: T1 sequence with F72D
The description is as above.

Experiment [4] addresses T1, GST-Nab2-N (GST fusion to the N-terminal domain of Nab2, residues 1–97) (S. cerevisiae). Put plainly: pull-down; purified GST fusion protein or GST added to yeast lysate (wild type, mlp1Δ or MLP1-TAP cells), recovered on glutathione beads; Coomassie Blue staining or immunoblotting with PAP antibody; only the target purified. A general note: Immunoblotting shows a protein as a band on a membrane.

For experiment [5], the target named is T4, GST-Nab2-N F73D (aa 1–97) (S. cerevisiae) (UniProt P32505).
T4 sequence: T1 sequence with F73D
The description is as above.

Experiment [6] has as its target T3, GST-Nab2-N F72D (aa 1–97) (S. cerevisiae). The experiment is described as above.
Experiment [7] addresses T5, Nab2 (nuclear abundant poly(A) RNA-binding protein 2), full-length, DBD fusion for two-hybrid (S. cerevisiae) (UniProt P32505).
T5 sequence: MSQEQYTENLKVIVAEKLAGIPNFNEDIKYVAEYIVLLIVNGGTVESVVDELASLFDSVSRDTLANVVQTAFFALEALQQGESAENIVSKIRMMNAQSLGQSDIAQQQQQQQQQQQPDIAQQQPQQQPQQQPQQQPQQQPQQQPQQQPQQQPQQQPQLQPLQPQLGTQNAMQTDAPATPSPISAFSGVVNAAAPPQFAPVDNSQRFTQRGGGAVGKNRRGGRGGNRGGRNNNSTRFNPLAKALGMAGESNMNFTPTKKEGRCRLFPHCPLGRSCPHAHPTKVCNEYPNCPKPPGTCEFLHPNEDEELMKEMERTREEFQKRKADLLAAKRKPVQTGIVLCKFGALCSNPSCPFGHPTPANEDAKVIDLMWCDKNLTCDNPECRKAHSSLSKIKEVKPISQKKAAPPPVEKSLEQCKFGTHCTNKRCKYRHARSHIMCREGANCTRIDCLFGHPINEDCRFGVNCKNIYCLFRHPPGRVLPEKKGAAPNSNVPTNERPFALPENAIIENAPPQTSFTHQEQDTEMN
Put plainly: two-hybrid; EGY48 reporter strain, Nab2 variants as DBD fusions (pEG202), CT-Mlp1 or Gfd1 as AD fusions (pJG4-5), lacZ reporter (blue colour), 30 °C.

Changes are numbered by the printed parent chain. No constants are given. Whether binding was seen depends on the method and setting. For some assays here: Binding seen in cells or lysates may run through a third protein. Some binding calls cover weakened binding; strength is not graded here. Where a sequence is shown, tags or fusion partners need not be part of it.

On to “His-CT-Mlp1 (Mlp1 C-terminal domain fragment, amino acids 1490–1779) (from UniProt Q02455 1490-1779) (domain or fragment)”, for which the binding result in experiment [1], in experiment [2] and in experiment [3] was “binds weakly” throughout.

On to “Mlp1 (myosin-like protein 1), full-length, endogenous in wild-type yeast lysate (from UniProt Q02455 1-1875)”, for which the binding entry in experiment [4] is recorded as “binds”.

As to “TAP-tagged Mlp1 (Mlp1-TAP), full-length, in yeast lysate (from UniProt Q02455 1-1875)”, the binding result is recorded as “binds” in experiment [4], “no binding” in experiment [5] and “binds” in experiment [6].

For “CT-Mlp1 (C-terminal globular domain of Mlp1, residues 1490–1875), AD fusion for two-hybrid (from UniProt Q02455 1490-1875) (domain or fragment)”, the binding result in experiment [7] is reported as “binds”.
